Measurements taken from PMC9911399, “Two distinct binding modes provide the RNA-binding protein RbFox with extraordinary sequence specificity”.
Changes are numbered by the printed parent chain; changes in the protein carry UniProt numbers. This is one part of the list.

T1: RBFOX1 RRM (Homo sapiens, UniProt Q9NWB1 109-208)
T1 sequence: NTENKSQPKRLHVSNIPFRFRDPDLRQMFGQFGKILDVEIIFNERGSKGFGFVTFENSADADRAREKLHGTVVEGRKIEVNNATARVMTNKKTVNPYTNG

B1: AAUUGCA (DNA:RNA)
RNA: GGGAGACCGGAAUUCAGAUUGUCCAAUUGCAUUAAAUCCCGUCGUAGCCACCA
DNA 1: CAATCTGAATTCCGGTCTCCC
DNA 2: TGGTGGCTACGACGGGATT
B2: UAAAGUU (DNA:RNA)
RNA: B1 RNA with A25U, U27A, U28A, C30U, A31U
DNA 1: CAATCTGAATTCCGGTCTCCC
DNA 2: TGGTGGCTACGACGGGATT
B3: CUGCUCU (DNA:RNA)
RNA: B1 RNA with A25C, A26U, U27G, U28C, G29U, A31U
DNA 1: CAATCTGAATTCCGGTCTCCC
DNA 2: TGGTGGCTACGACGGGATT
B4: AUCGAGG (DNA:RNA)
RNA: B1 RNA with A26U, U27C, U28G, G29A, C30G, A31G
DNA 1: CAATCTGAATTCCGGTCTCCC
DNA 2: TGGTGGCTACGACGGGATT
B5: AUGUAGU (DNA:RNA)
RNA: B1 RNA with A26U, U27G, G29A, C30G, A31U
DNA 1: CAATCTGAATTCCGGTCTCCC
DNA 2: TGGTGGCTACGACGGGATT
B6: ACACUGA (DNA:RNA)
RNA: B1 RNA with A26C, U27A, U28C, G29U, C30G
DNA 1: CAATCTGAATTCCGGTCTCCC
DNA 2: TGGTGGCTACGACGGGATT
B7: ACCCAAG (DNA:RNA)
RNA: B1 RNA with A26C, U27C, U28C, G29A, C30A, A31G
DNA 1: CAATCTGAATTCCGGTCTCCC
DNA 2: TGGTGGCTACGACGGGATT
B8: GAGCGCG (DNA:RNA)
RNA: B1 RNA with A25G, U27G, U28C, A31G
DNA 1: CAATCTGAATTCCGGTCTCCC
DNA 2: TGGTGGCTACGACGGGATT
B9: AGACGUA (DNA:RNA)
RNA: B1 RNA with A26G, U27A, U28C, C30U
DNA 1: CAATCTGAATTCCGGTCTCCC
DNA 2: TGGTGGCTACGACGGGATT
B10: UAGGGUU (DNA:RNA)
RNA: B1 RNA with A25U, U27G, U28G, C30U, A31U
DNA 1: CAATCTGAATTCCGGTCTCCC
DNA 2: TGGTGGCTACGACGGGATT
B11: AGAGCAC (DNA:RNA)
RNA: B1 RNA with A26G, U27A, U28G, G29C, C30A, A31C
DNA 1: CAATCTGAATTCCGGTCTCCC
DNA 2: TGGTGGCTACGACGGGATT
B12: UAGGGUC (DNA:RNA)
RNA: B1 RNA with A25U, U27G, U28G, C30U, A31C
DNA 1: CAATCTGAATTCCGGTCTCCC
DNA 2: TGGTGGCTACGACGGGATT
B13: CAAGGCU (DNA:RNA)
RNA: B1 RNA with A25C, U27A, U28G, A31U
DNA 1: CAATCTGAATTCCGGTCTCCC
DNA 2: TGGTGGCTACGACGGGATT
B14: GGUACAU (DNA:RNA)
RNA: B1 RNA with A25G, A26G, U28A, G29C, C30A, A31U
DNA 1: CAATCTGAATTCCGGTCTCCC
DNA 2: TGGTGGCTACGACGGGATT
B15: AAAAGAA (DNA:RNA)
RNA: B1 RNA with U27A, U28A, C30A
DNA 1: CAATCTGAATTCCGGTCTCCC
DNA 2: TGGTGGCTACGACGGGATT
B16: UACAGGU (DNA:RNA)
RNA: B1 RNA with A25U, U27C, U28A, C30G, A31U
DNA 1: CAATCTGAATTCCGGTCTCCC
DNA 2: TGGTGGCTACGACGGGATT
B17: AGCCGAA (DNA:RNA)
RNA: B1 RNA with A26G, U27C, U28C, C30A
DNA 1: CAATCTGAATTCCGGTCTCCC
DNA 2: TGGTGGCTACGACGGGATT
B18: CGUUGUC (DNA:RNA)
RNA: B1 RNA with A25C, A26G, C30U, A31C
DNA 1: CAATCTGAATTCCGGTCTCCC
DNA 2: TGGTGGCTACGACGGGATT
B19: AGGUCGA (DNA:RNA)
RNA: B1 RNA with A26G, U27G, G29C, C30G
DNA 1: CAATCTGAATTCCGGTCTCCC
DNA 2: TGGTGGCTACGACGGGATT
B20: GACAUCU (DNA:RNA)
RNA: B1 RNA with A25G, U27C, U28A, G29U, A31U
DNA 1: CAATCTGAATTCCGGTCTCCC
DNA 2: TGGTGGCTACGACGGGATT

Each binder was assayed against T1, RBFOX1 RRM (assay: EMSA; HiTS-Eq, 1 nM pool, 10 min; buffer printed only for the single-RNA assays: 10 mM Tris pH 7.5, 150 mM NaCl, 3.4 mM EDTA, 0.001% NP-40, 30 C). Details: tags: His6 N-terminal (pET28a); label: 5' 32P.
Summary of the method: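 Purified RbFox RRM (wild type or mutant) was equilibrated for 10 min in 50 µL with 1 nM of a 5′-radiolabelled pool of RNA with 7 randomized nucleotides, its flanks annealed to DNA oligonucleotides, across increasing protein concentrations. Free RNA was separated by 8% native PAGE, excised, reverse-transcribed, PCR-barcoded and sequenced on an Illumina HiSeq 2500. Relative association constants came from read-count changes of each variant against the control reaction, normalised to the cognate motif.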

| Binder | binding signal |
| --- | --- |
| B1 | 0.0136 KA relative to UGCAUGU |
| B2 | 0.0092 KA relative to UGCAUGU |
| B3 | 0.0136 KA relative to UGCAUGU |
| B4 | 0.0103 KA relative to UGCAUGU |
| B5 | 0.00813 KA relative to UGCAUGU |
| B6 | 0.00517 KA relative to UGCAUGU |
| B7 | 0.0029 KA relative to UGCAUGU |
| B8 | 0.0177 KA relative to UGCAUGU |
| B9 | 0.00585 KA relative to UGCAUGU |
| B10 | 0.0189 KA relative to UGCAUGU |
| B11 | 0.00559 KA relative to UGCAUGU |
| B12 | 0.015 KA relative to UGCAUGU |
| B13 | 0.00732 KA relative to UGCAUGU |
| B14 | 0.00481 KA relative to UGCAUGU |
| B15 | 0.00178 KA relative to UGCAUGU |
| B16 | 0.00878 KA relative to UGCAUGU |
| B17 | 0.00653 KA relative to UGCAUGU |
| B18 | 0.015 KA relative to UGCAUGU |
| B19 | 0.0134 KA relative to UGCAUGU |
| B20 | 0.00384 KA relative to UGCAUGU |
